Measured values published in the supplement of paper PMC6135742.
Where “and” joins values, the source holds several entries; their conditions need not be identical. Equal values may be shown once. Where a name gives a salt, the structure may show the parent alone. ± gives the standard deviation of the averaged measurements. In all, about 2,600 compounds were measured (“MBP+ mature oligodendrocyte number relative to DMSO vehicle control”: median about -0.34, highest 2% from about 13 on). Some of the results follow.

Test system: jimpy (Plp1 jimpy) mouse iPSC-derived oligodendrocyte progenitor cells
Experiment: MBP+ mature oligodendrocyte number relative to DMSO vehicle control (SDs above negative control mean); higher = more surviving jimpy oligodendrocytes (rescue)
Conditions: 10 µM; 3 days
Procedure: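 Primary phenotypic screen of >3,000 bioactive compounds (Selleck L1700 and Sigma LO1280 libraries) at a single dose of 10 µM. Compounds were added to jimpy (Plp1 mutant) mouse iPSC-derived OPCs at the start of thyroid hormone-induced oligodendrocyte differentiation, one well per compound in 384-well plates. After 3 days cells were stained for MBP, Sox10 and DAPI and imaged with an Operetta system. MBP+ oligodendrocyte number and total cell number were expressed as the number of SDs above the mean of the DMSO negative control on the same plate (n=16 control wells per plate). Hits were defined as >=4 SD for oligodendrocytes and >=2 SD for total cells.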

Point of comparison: `COc1ccc(C[C@@H]2c3cc(OC)c(OC)cc3CC[N@+]2(C)CCC(=O)OCCCCCOC(=O)CC[N@@+]2(C)CCc3cc(OC)c(OC)cc3[C@H]2Cc2ccc(OC)c(OC)c2)cc1OC` [Cisatracurium Besylate], “MBP+ mature oligodendrocyte number” value -0.0525. Against it:
- CNC(CC(=O)O)C(=O)O [NMDA (N-Methyl-D-aspartic acid)] — higher, 1.84
- C[C@H](NC(=O)Cc1cc(F)cc(F)c1)C(=O)N[C@H](C(=O)OC(C)(C)C)c1ccccc1 — higher, 1.79
- CN1CCc2cccc3c2[C@H]1Cc1ccc(O)c(O)c1-3 [Apomorphine hydrochloride hemihydrate] — lower, -2.99
- C[C@H](NC(=O)[C@@H](O)c1cc(F)cc(F)c1)C(=O)N[C@@H]1C(=O)N(C)c2ccccc2-c2ccccc21 — higher, 2.56
- Cc1c(Cc2ccc3ccccc3n2)c2cc(F)ccc2n1CC(=O)O — higher, 3.44
- CO[C@@H](C(=O)N1Cc2[nH]nc(NC(=O)c3ccc(N4CCN(C)CC4)cc3)c2C1)c1ccccc1 — lower, -6.61
- CN1CCN(C2=Nc3cc(Cl)ccc3Nc3ccccc32)CC1 [Clozapine] — lower, -2.03 ± 1.1
- C=CC[C@H](N)C(=O)O [L-allylglycine] — lower, -1.69
- Brc1ccc([C@H]2CN3CCSC3=N2)cc1 [S(-)-p-Bromotetramisole oxalate] — lower, -0.119
- O=C(O)c1ccccc1Nc1ccccc1 [N-Phenylanthranilic acid] — lower, -0.197
- CC1CCc2c(N3CCC(O)CC3)c(F)cc3c(=O)c(C(=O)O)cn1c23 (configuration not stated) [Nadifloxacin] — higher, 1.22
- Clc1ccc(COC(Cn2ccnc2)c2ccc(Cl)cc2Cl)c(Cl)c1 (configuration not stated) [Miconazole] — lower, -1.9
- Clc1ccc(COC(Cn2ccnc2)c2ccc(Cl)cc2Cl)c(Cl)c1 (configuration not stated) [Miconazole Nitrate] — lower, -3.62
- NCC=CC(=O)O (stereo in doubt) [cis-4-Aminocrotonic acid] — higher, 0.431
- Cc1cc(=O)n(-c2ccccc2)n1C [Antipyrine] — lower, -0.0546
- CC(=O)[C@H]1CC[C@H]2[C@@H]3CC=C4C[C@@H](OS(=O)(=O)O)CC[C@]4(C)[C@H]3CC[C@]12C [Pregnenolone sulfate sodium] — higher, 0.467
- NC12CC3CC(CC(C3)C1)C2 [Amantadine HCl] — higher, 0.451
- NC12CC3CC(CC(C3)C1)C2 [Amantadine hydrochloride] — lower, -0.276
- N#C/C(=C\c1ccc(O)c(O)c1)C(=O)c1ccc(O)c(O)c1 [Tyrphostin AG 538] — lower, -0.247
- CO[C@H]1O[C@@H]2O[C@@]3(C)CC[C@H]4[C@H](C)CC[C@@H]([C@H]1C)[C@@]24OO3 [Artemether] — lower, -1.19 ± 0.13
- O=c1c2ccccc2oc2ccccc12 [Xanthone] — higher, 2.35
- CC1(C2CCCC2)Cc2cc(OCC(=O)O)c(Cl)c(Cl)c2C1=O (configuration not stated) — lower, -0.559
- CN(C)[C@@H]1C(O)=C(C(N)=O)C(=O)[C@@]2(O)C(O)=C3C(=O)c4c(O)ccc(Cl)c4[C@@H](O)[C@H]3C[C@@H]12 [Demeclocycline hydrochloride] — lower, -0.701
- O=C(O)CC1CC(c2ccccc2)=NO1 (configuration not stated) — higher, 3.45
- Cn1c([N+](=O)[O-])cnc1COC(N)=O [Ronidazole] — higher, 3.87
- CCN(c1cc(-c2ccc(CN3CCOCC3)cc2)cc(C(=O)NCc2c(C)cc(C)[nH]c2=O)c1C)C1CCOCC1 — higher, 8.01
- N[C@@H](C(=O)N[C@@H]1C(=O)N2C(C(=O)O)=C(Cl)CS[C@H]12)c1ccccc1 [Cefaclor] — higher, 0.0385
- CC(C)NC[C@H](O)c1ccc(O)c(O)c1 [R(-)-Isoproterenol (+)-bitartrate] — lower, -1.28
- COC[C@H](NC(=O)c1cnc(C)s1)C(=O)N[C@@H](COC)C(=O)N[C@@H](Cc1ccccc1)C(=O)[C@@]1(C)CO1 [Oprozomib (ONX 0912)] — lower, -5.76
- NCCS(=O)O [Hypotaurine] — higher, 0.973
- C[C@H](Oc1cc(-c2cnn(C3CCNCC3)c2)cnc1N)c1c(Cl)ccc(F)c1Cl [(S)-crizotinib] — lower, -4.58
- CN(C)CCOC(=O)COc1ccc(Cl)cc1 [Centrophenoxine hydrochloride] — lower, -1.77
- Brc1c(NC2=NCCN2)ccc2nccnc12 — higher, -0.0327
- Brc1c(NC2=NCCN2)ccc2nccnc12 [Brimonidine Tartrate] — higher, 4.04
- Cc1ccc2c(Cl)cc(Cl)c(O)c2n1 [Chlorquinaldol] — lower, < -6.35
- N=C(N)N/N=C/c1c(Cl)cccc1Cl [Guanabenz Acetate] — higher, 8.68
- N=C(N)N/N=C/c1c(Cl)cccc1Cl [Guanabenz acetate] — higher, 2.02
- OC(CCN1CCCCC1)(c1ccccc1)C1CCCCC1 (configuration not stated) [Trihexyphenidyl hydrochloride] — lower, -0.104
- CN(CCOc1ccc(CC2SC(=O)NC2=O)cc1)c1ccccn1 (configuration not stated) [Rosiglitazone] — lower, -0.108
- Fc1cc(-c2cccc3ncc(-c4cnn(C5CCNCC5)c4)nc23)cc(F)c1CN1CCOCC1 — lower, < -6.01
- CCOC(=O)c1c(C)n(C)c2ccc(O)cc12 [Mecarbinate] — lower, -0.647
- CC(N)C12CC3CC(CC(C3)C1)C2 (configuration not stated) [Rimantadine] — lower, -0.647
- O=C(NS(=O)(=O)c1ccc(Br)s1)c1ccc(Cl)cc1Cl [Tasisulam] — lower, -0.523
- OCCOCCN1CCN(C(c2ccccc2)c2ccc(Cl)cc2)CC1 (configuration not stated) [Hydroxyzine 2HCl] — higher, 10.7
- COc1ccc(CNC(=O)Nc2ncc([N+](=O)[O-])s2)cc1 — higher, 3.03
- Cc1cc(-n2c(=O)[nH]c(=O)n(C)c2=O)ccc1Oc1ccc(SC(F)(F)F)cc1 [Toltrazuril] — higher, 0.66
- CCCn1c(=O)c2[nH]c(-c3ccc(S(=O)(=O)O)cc3)nc2n(CCC)c1=O [1,3-Dipropyl-8-p-sulfophenylxanthine] — higher, 0.353
- Cc1ccccc1N1C(=O)c2cc(S(N)(=O)=O)c(Cl)cc2NC1C (configuration not stated) [Metolazone] — within error, -0.109 ± 1.7
- CN(C)CCC(c1ccc(Br)cc1)c1ccccn1 (racemic) [(±)-Brompheniramine maleate] — lower, -0.629
- O=C1N(c2ccccc2)c2ccccc2C1(Cc1ccncc1)Cc1ccncc1 [Linopirdine] — lower, -1.07

With `CC(C)N(CCCNC(=O)Nc1ccc(C(C)(C)C)cc1)C[C@H]1O[C@@H](n2ccc3c(N)ncnc32)[C@H](O)[C@@H]1O` the “MBP+ mature oligodendrocyte number” value was -3.9 and -3.23.
